Assay results published in the supplement of paper PMC10338343.
± gives the standard deviation. The list shows a part of the results, in another mix than the full data.

Test system: MIWI (PIWIL1) piRISC loaded with piRNA #1 (30 nt)
Assay: pre-steady-state target cleavage rate (min^-1); MIWI and MILI are mouse PIWI proteins and EfPiwi is from a freshwater sponge; tags in brackets are library labels; higher = faster piRNA-guided slicing of the target
Conditions: guide: piRNA #1 5'p-UGAGGUAGUAGGUUGUAUAGUAUCCAGAGG; auxiliary factor: 500 nM mouse GTSF1
Method in brief: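 For Cleave-'n-Seq, a transcribed, DNA-blocked target RNA library […] met 1 nM active affinity-purified piRISC with one synthetic guide at 33 °C for 0–8 or 0–960 min in HEPES–potassium acetate buffer, with or without 500 nM GTSF1 partner protein. Uncleaved targets were sequenced and normalised to depth and weakly complementary targets, with three trials pooled and k3 capped at 0.0001 min^-1. A burst-and-steady-state fit supplied the pre-steady-state cleavage rate.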
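Also: 1 nM active piRISC with 0.1 nM target library at 33 °C single turnover.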

Row | Sequence | pre-steady-state target cleavage rate
1 | GGACUGGAUAGUAUACAACGUACUACCUCA | 0.22 ± 0.042
2 | GCUCUAGAUACUAUACAACCUACUACCUCA | 2.09 ± 0.12
3 | GGUCUGGUUACUAAACAACCUACUACCUCA | 1.6 ± 0.11
4 | GGAGACCUAUGAUAAGAUCCUACUACCUCA | < 0.0001
5 | GGAGACCUUACUAUACAACCUAGCUACCUCA | 0.082 ± 0.012
6 | GGAGACCUAACUAUAGAACCAACUACCUCA | 0.00608 ± 0.0017
7 | GGAGACGAUACUAUACAACCUACUACAUCA | 0.865 ± 0.054
8 | GGAGUCGAUACUAUACAACCUUCUACCUCA | 0.424 ± 0.029
9 | GCUCUGGAUACUAUACAAGGAACUACCUCA | 0.00393 ± 0.0032
10 | GGAGACCUAUGAAGUACAACCUACUACCUCA | 0.00467 ± 0.0028
11 | CGUCUGGUUACUAUACAACCUACUACCUCA | 1.48 ± 0.083
12 | GGAGUGCAUACUAUACAACCUUCUACCUCA | 0.664 ± 0.041
13 | GCUCUGGAUACUACUACAACCUACUACCUCA | 1.45 ± 0.097
14 | GGAGACCAUACUUUACAACCUAGUACCUCA | 0.508 ± 0.045
15 | GGUCUGGAUACUAUACAACCUACUACAUCA | 0.527 ± 0.043
16 | GCUCUGGAUACUAUAUCAACCUACUACCUCA | 0.868 ± 0.1
17 | GGAGACCUAUCUAUAAAACCUACUACCUCA | 0.284 ± 0.04
18 | GGUCUGGAUACUAUACAACCUACCUACCUCA | 1.12 ± 0.072
19 | GGAGACCAUACUAUACUUGCUACUACCUCA | 0.00532 ± 0.0018
20 | GGAGUGGAUACUAUCCAACCUACUACCUCA | 1.76 ± 0.11

Row | Sequence | pre-steady-state target cleavage rate
21 | GGAGACCUAACGAUACAACCUACUACCUCA | 0.725 ± 0.14
22 | GGACUGGAUACAAUACAACCUAGUACCUCA | 0.518 ± 0.059
23 | GGAGACCUUUCUAUAGAACCUACUACCUCA | 0.751 ± 0.074
24 | CCUCUGGAUACUAACAACCUACUACCUCA | 1.75 ± 0.13
25 | GGUCUGGUUACUAUACAACCUACUACCUCA | 1.87 ± 0.11
26 | GGAGAGGAUACUAUACAACCUACUACCCCA | 0.835 ± 0.075
27 | GGAGACCUAUCUAAACAACCUUCUACCUCA | 0.00561 ± 0.0024
28 | GGAGACGAUACUAUACAUCCUACUACGUCA | 0.76 ± 0.062
29 | CCUCUGGUUACUAUAGAACCUACUACCUCA | 0.623 ± 0.059
30 | GGAGACCUAACUAAUACAACCUACUACCUCA | 0.358 ± 0.064
31 | GGAGACCUAUGAUAUGUACCUUCUACCUCA | < 0.0001
32 | CCUCUGGAUACUAUACAACCUACUUGGUCA | 0.107 ± 0.026
33 | GGACUGGAUAGUAUACAACCUACUUCCUCA | 0.0611 ± 0.015
34 | GGAGAGGUUACUAUACAACCUACUACGUCA | 0.0697 ± 0.012
35 | GGAGACCUAUGUAGUACAACCUACUACCUCA | 0.0175 ± 0.0062
36 | GGUGUGGAUACUAUACUACCUACUACCUCA | 1.33 ± 0.09
37 | GGAGACGAUACUUUACAACCUACUUCCUCA | 0.224 ± 0.063
38 | GGAGAGGAUACUUUACAACCUACUACGUCA | 0.322 ± 0.03
39 | GCUCAGGAUACAAUACAACCUACUACCUCA | 1.9 ± 0.12
40 | GGAGACCUAACUAUACAACGUACUACGUCA | 0.179 ± 0.037
